Assay results published in patent US20250361297A1, “ANTI- SIGLEC-15 BINDING MOLECULES AND METHODS OF USE” (ADAPTAM THERAPEUTICS, S.L., priority 2024, published 2025).

What was measured:
[1] = biological target: T1, Jurkat cells expressing CD3 (Homo sapiens, UniProt P07766); assay: Binding of bispecific antibodies to Jurkat cells expressing CD3 (flow cytometry); details: for binding affinity for CD3-expressing Jurkat cells: flow cytometry, compared to the parental anti-CD3 (FIG. 32B)
T1 construct: endogenous in cells; host or cells: Jurkat
T1 sequence (P07766 23-207): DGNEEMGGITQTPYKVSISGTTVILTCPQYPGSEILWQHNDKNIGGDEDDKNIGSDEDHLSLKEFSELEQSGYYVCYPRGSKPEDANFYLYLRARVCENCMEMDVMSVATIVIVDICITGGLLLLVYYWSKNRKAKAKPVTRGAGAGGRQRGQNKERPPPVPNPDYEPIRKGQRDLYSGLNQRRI
T1 sequence (P04234 22-171 partner): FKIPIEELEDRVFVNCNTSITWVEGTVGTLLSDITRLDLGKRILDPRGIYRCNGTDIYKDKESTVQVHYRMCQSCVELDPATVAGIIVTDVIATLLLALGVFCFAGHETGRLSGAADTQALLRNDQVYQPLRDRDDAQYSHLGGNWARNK
T1 sequence (P09693 23-182 partner): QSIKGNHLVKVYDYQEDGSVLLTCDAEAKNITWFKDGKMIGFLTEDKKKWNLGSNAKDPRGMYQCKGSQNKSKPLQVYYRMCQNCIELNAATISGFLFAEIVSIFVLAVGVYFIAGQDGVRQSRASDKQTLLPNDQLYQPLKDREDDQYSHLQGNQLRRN
T1 sequence (P20963 22-164 partner): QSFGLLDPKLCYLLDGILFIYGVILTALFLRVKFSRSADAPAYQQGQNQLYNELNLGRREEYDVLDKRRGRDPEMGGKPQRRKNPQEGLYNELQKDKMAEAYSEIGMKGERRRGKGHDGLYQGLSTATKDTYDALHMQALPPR
T1 sequence (P01848 whole entry partner): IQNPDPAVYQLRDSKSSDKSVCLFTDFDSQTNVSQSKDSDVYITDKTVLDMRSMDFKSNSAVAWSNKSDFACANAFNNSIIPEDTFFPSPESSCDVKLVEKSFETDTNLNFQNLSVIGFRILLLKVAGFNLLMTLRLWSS
T1 sequence (P01850 whole entry partner): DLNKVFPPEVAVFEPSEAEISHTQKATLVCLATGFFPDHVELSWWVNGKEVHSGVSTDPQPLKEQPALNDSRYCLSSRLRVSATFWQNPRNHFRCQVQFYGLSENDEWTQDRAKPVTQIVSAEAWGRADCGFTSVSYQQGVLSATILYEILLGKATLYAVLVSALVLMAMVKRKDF

[2] = system: target cells expressing Siglec-15; assay: PBMC based TDCC assay (LDH release); type: cell-based; details: in the presence of human T-cells (FIG. 34)
Description: PBMC based TDCC assay: 5000 target cells (THP-1 S15 OE) were harvested, gently resuspended in the corresponding assay buffer, and added to a 96-well assay plate. The bispecific antibody samples were diluted in assay medium, starting at a concentration of 0.8 nM with a 4-fold dilution factor, and transferred to the appropriate wells of the assay plate. The plate was incubated at room temperature for approximately 30 minutes. Effector cells (PBMCs) were then harvested, resuspended in assay buffer, and their density was adjusted to achieve the desired effector-to-target (E/T) ratio. The effector cell suspension (100 μL per well) was added to the corresponding wells of the assay plate. Following incubation at 37° C. with 5% CO2 for 24 hours, the assay plate was removed, and 50 μL of supernatant from each well was transferred to a new 96-well assay plate. A LDH assay mixture (50 μL per well) was prepared and added to the corresponding wells. Absorbance values were measured at 492 nm and 650 nm using the PHERAstar system. Dose-response curves were generated by plotting the percentage of target cell lysis against the sample concentration. The percentage of target cell lysis was calculated using the formula: %

[3] = biological target: recombinant CD3 (Homo sapiens, UniProt P07766); assay: Binding of bispecific antibodies to recombinant CD3 (BLI); details: compared to the parental anti-CD3 antibody (FIG. 32A)
Chain of recombinant CD3 (P07766 23-207): as the sequence (P07766 23-207) above
Description: Bispecific antibody production and affinity validation: A) BsAb Design and Recombinant Production: To produce bispecific antibodies (BsAbs), a set of BsAbs and anti-CD3 monoclonal antibody (mAb) will be transiently transfected into Expi CHO-S cells. The transfections were conducted at a 300 ml culture scale. After transfection, antibodies were purified using either a protein A affinity column or his-tag purification resin, depending on the affinity and properties of the expressed antibodies. To further purify the antibodies, size-exclusion chromatography (SEC-HPLC) was employed as a second-step purification, based on the initial purity analysis. B) BsAb Affinity Validation: Once the antibodies were purified, the following steps were performed for affinity validation: 1-Biacore SPR Analysis for Siglec15 Binding: Surface plasmon resonance (SPR) analysis using a Biacore system was conducted for all BsAbs and parental mAbs against Siglec15 to assess binding affinity. 2-Biacore SPR Analysis for CD3 Binding: Similarly, Biacore SPR analysis was conducted for all BsAbs and the parental anti-CD3 mAb to evaluate their binding affinity to CD3. […]

Molecule | affinity for CD3-expressing Jurkat cells, BsAb-1 versus BsAb-2 ([1]; flow cytometry (FIG. 32B)) | binding affinity for CD3-expressing Jurkat cells [1] | lysis of target cells expressing Siglec-15 [2] | binding affinity for recombinant CD3 [3]
BsAb-1: Siglec-15 x CD3 bispecific antibody, Format-1: KIH & CrossmAb; SEQ ID NOs: 111-114 (protein, BsAb-1 VL1 + CL; BsAb-1 VH1 + CH; BsAb-1 VH2 + CH; BsAb-1 VL2 + CL) chain 1: DIVLTQSPASLAVSLGQRATISCRASKSVSTSGYSYMHWYQQKPGQPPKLLIYLASNLESGVPARFSGSGSGTDFTLNIHPVEEEDAATYYCQHGRELPFTFGSGTKLEIKRTVAAPSVFIFPPSDEQLKSGTASVVCLLNNFYPREAKVQWKVDNALQSGNSQESVTEQDSKDSTYSLSSTLTLSKADYEKHKVYACEVTHQGLSSPVTKSFNRGEC chain 2: QVQLQQSGPELVKPGASVKISCKASGYAFSSSWMNWVKQRPGKGLEWIGRIYPGHGETNYNGKFKDKATVTADKSSSTTYMQLSSLTSEDSAVYFCARVDNSDPYYFDYWGQGTTLTVSSASTKGPSVFPLAPSSKSTSGGTAALGCLVKDYFPEPVTVSWNSGALTSGVHTFPAVLQSSGLYSLSSVVTVPSSSLGTQTYICNVNHKPSNTKVDKKVEPKSCDKTHTCPPCPAPEAAGGPSVFLFPPKPKDTLMISRTPEVTCVVVDVSHEDPEVKFNWYVDGVEVHNAKTKPREEQYNSTYRVVSVLTVLHQDWLNGKEYKCKVSNKALPAPIEKTISKAKGQPREPQVCTLPPSRDELTKNQVSLSCAVKGFYPSDIAVEWESNGQPENNYKTTPPVLDSDGSFFLVSKLTVDKSRWQQGNVFSCSVMHEALHNHYTQKSLSLSPGK chain 3: EVQLVESGGGLVKPGGSLRLSCAASGFTFNTYAMNWVRQAPGKGLEWVARIRSKYNNYATYYADSVKDRFTISRDDSKNTLYLQMNSLKTEDTAVYYCVRHGNFGNSYVSWFAYWGQGTLVTVSSGQPKAAPSVTLFPPSSEELQANKATLVCLISDFYPGAVTVAWKADSSPVKAGVETTTPSKQSNNKYAASSYLSLTPEQWKSHRSYSCQVTHEGSTVEKTVAPTECS[sequence of human IgG1 Fc with changes not given] chain 4: QTVVTQEPSFSVSPGGTVTLTCRSSTGAVTTSNYANWVQQTPGQAPRGLIGGTNKRAPGVPARFSGSILGNKAALTITGAQADDEAEYFCALWYSNLWVFGGGTKLTVLASTKGPSVFPLAPSSKSTSGGTAALGCLVKDYFPEPVTVSWNSGALTSGVHTFPAVLQSSGLYSLSSVVTVPSSSLGTQTYICNVNHKPSNTKVDKKVEPKSC | higher affinity than BsAb-2 | lower binding affinity | approximately 70% | lower binding affinity
BsAb-2: Siglec-15 x CD3 bispecific antibody, Format-2: KIH & scFv (2 + 1); SEQ ID NOs: 115-118 (protein, BsAb-2 VL1 + CL; BsAb-2 VH1 + CH; BsAb-2 VH2 + CH; BsAb-2 VL2 + CL) chain 1: DIVLTQSPASLAVSLGQRATISCRASKSVSTSGYSYMHWYQQKPGQPPKLLIYLASNLESGVPARFSGSGSGTDFTLNIHPVEEEDAATYYCQHGRELPFTFGSGTKLEIKRTVAAPSVFIFPPSDEQLKSGTASVVCLLNNFYPREAKVQWKVDNALQSGNSQESVTEQDSKDSTYSLSSTLTLSKADYEKHKVYACEVTHQGLSSPVTKSFNRGEC chain 2: QVQLQQSGPELVKPGASVKISCKASGYAFSSSWMNWVKQRPGKGLEWIGRIYPGHGETNYNGKFKDKATVTADKSSSTTYMQLSSLTSEDSAVYFCARVDNSDPYYFDYWGQGTTLTVSSASTKGPSVFPLAPSSKSTSGGTAALGCLVKDYFPEPVTVSWNSGALTSGVHTFPAVLQSSGLYSLSSVVTVPSSSLGTQTYICNVNHKPSNTKVDKKVEPKSCDKTHTCPPCPAPEAAGGPSVFLFPPKPKDTLMISRTPEVTCVVVDVSHEDPEVKFNWYVDGVEVHNAKTKPREEQYNSTYRVVSVLTVLHQDWLNGKEYKCKVSNKALPAPIEKTISKAKGQPREPQVCTLPPSRDELTKNQVSLSCAVKGFYPSDIAVEWESNGQPENNYKTTPPVLDSDGSFFLVSKLTVDKSRWQQGNVFSCSVMHEALHNHYTQKSLSLSPGK chain 3: QVQLQQSGPELVKPGASVKISCKASGYAFSSSWMNWVKQRPGKGLEWIGRIYPGHGETNYNGKFKDKATVTADKSSSTTYMQLSSLTSEDSAVYFCARVDNSDPYYFDYWGQGTTLTVSSASTKGPSVFPLAPSSKSTSGGTAALGCLVKDYFPEPVTVSWNSGALTSGVHTFPAVLQSSGLYSLSSVVTVPSSSLGTQTYICNVNHKPSNTKVDKKVEPKSCGGGGSGGGGSGGGGSQTVVTQEPSFSVSPGGTVTLTCRSSTGAVTTSNYANWVQQTPGQAPRGLIGGTNKRAPGVPARFSGSILGNKAALTITGAQADDEAEYFCALWYSNLWVFGGGTKLTVLGGGGSGGGGSGGGGSGGGGSEVQLVESGGGLVKPGGSLRLSCAASGFTFNTYAMNWVRQAPGKGLEWVARIRSKYNNYATYYADSVKDRFTISRDDSKNTLYLQMNSLKTEDTAVYYCVRHGNFGNSYVSWFAYWGQGTLVTVSSGGGGSGGGGSGGGGS[sequence of human IgG1 Fc with changes not given] chain 4: DIVLTQSPASLAVSLGQRATISCRASKSVSTSGYSYMHWYQQKPGQPPKLLIYLASNLESGVPARFSGSGSGTDFTLNIHPVEEEDAATYYCQHGRELPFTFGSGTKLEIKRTVAAPSVFIFPPSDEQLKSGTASVVCLLNNFYPREAKVQWKVDNALQSGNSQESVTEQDSKDSTYSLSSTLTLSKADYEKHKVYACEVTHQGLSSPVTKSFNRGEC |  | lower binding affinity | ~40% | lower binding affinity
